# Measurements as given in paper PMC7819943, “Rice protein-binding microarrays: a tool to detect cis-acting elements near promoter regions in rice”.
# This is one part of the list.
# Molecular target: T1, OsWOX13 (Oryza sativa, UniProt Q5QMM3 1-267)
# T1 sequence: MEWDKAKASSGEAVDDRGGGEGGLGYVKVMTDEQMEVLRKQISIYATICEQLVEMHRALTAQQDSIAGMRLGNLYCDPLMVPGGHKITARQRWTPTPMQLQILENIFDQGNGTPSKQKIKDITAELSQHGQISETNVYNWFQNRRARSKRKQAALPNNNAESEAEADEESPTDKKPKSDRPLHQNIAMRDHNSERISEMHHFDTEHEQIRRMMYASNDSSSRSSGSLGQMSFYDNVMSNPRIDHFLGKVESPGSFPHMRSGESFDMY
# Test: protein-binding microarray (RPBM); PBS, 2% BSA, 51.3 ng/ul salmon testes DNA, 50 uM zinc acetate, 200 nM TF, 25 C, 1 h; high values mean tight binding
# Settings: protein: recombinant; tags: N-terminal polyhistidine and DsRed monomer fusion (pET32a); label: CyDye5-dUTP incorporated in the synthesized complementary strand; 3' TTTTT single-stranded linker to array surface; dsDNA, one strand shown
# Method in brief: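 Binding signal here means per-feature fluorescence intensity in arbitrary units. The values were read on an Axon 4000B scanner after a custom Agilent array, double-stranded by primer extension with Cy5-dUTP, was incubated with 200 nM protein at 25 °C for 1 h in PBS with 2% BSA, salmon testes DNA and 50 µM zinc acetate, then washed. The proteins were transcription factors with an N-terminal polyhistidine tag and DsRed, expressed in E. coli BL21-CodonPlus and purified on Ni–NTA.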
row,Sequence,binding signal
1,CCCGTCTCCATTTCTTTTGTCTCTCTCTCGCTCTTCAAATCGGAGTCACCTAGTGCAG,3400 fluorescence intensity (a.u.)
2,CAAATTGAATGGCTGTTGAAGTTCTGTATGTTGGAAAGCCCGGAGTCACCTAGTGCAG,49400 fluorescence intensity (a.u.)
3,GCGAGATTGGAAGGGAAGAGATCCCAATCGGCGTCGGTTACGGAGTCACCTAGTGCAG,10400 fluorescence intensity (a.u.)
4,CCAAACAGGTGGACTAATTTGGGGTTAAAGTGAATTAGCCCGGAGTCACCTAGTGCAG,24700 fluorescence intensity (a.u.)
5,GTCACAACAAATTGGCATTGAGATTTGTCATTTGAGAGAGCGGAGTCACCTAGTGCAG,22000 fluorescence intensity (a.u.)
6,AAATGATGTGGAGATAATGATTTGACATTGCTTACATATTCGGAGTCACCTAGTGCAG,6350 fluorescence intensity (a.u.)
7,TTTTAAAATTTTAAACCTAGATTTAAACTTGAAATTTGAACGGAGTCACCTAGTGCAG,3590 fluorescence intensity (a.u.)
8,GCCAAATTGAAAGGAGAAATGATGATAAAGGATGAGGAGTCGGAGTCACCTAGTGCAG,26800 fluorescence intensity (a.u.)
9,ATGGGCTGATTGGGCCAGATTACACGTGCGACGTATCTGTCGGAGTCACCTAGTGCAG,35800 fluorescence intensity (a.u.)
10,CGATGATAGATCTGGTCTGGCGAATAGGCATGTGCTTGGTCGGAGTCACCTAGTGCAG,14700 fluorescence intensity (a.u.)
11,TTAAAATACAAATCTAATTATACTACATGCATTAACATAACGGAGTCACCTAGTGCAG,6200 fluorescence intensity (a.u.)
12,TTGACGGGATGTTGATGGCGACGGTGCTCTTCTCTGTGTGCGGAGTCACCTAGTGCAG,5280 fluorescence intensity (a.u.)
13,CAGAATTGAAGATGAGGGTCAATGCGCCAATAGAGCTGGTCGGAGTCACCTAGTGCAG,5130 fluorescence intensity (a.u.)
14,CCAAGCATTAATGACGCTTTAAATTACTACCCCTTCCGTGCGGAGTCACCTAGTGCAG,3600 fluorescence intensity (a.u.)
15,AAGTTTACATGCCTAATTTAAATTTGAATTTGAATTCAAACGGAGTCACCTAGTGCAG,8850 fluorescence intensity (a.u.)
16,GTGGAGAGTTGTGATTGGTTGAGAAGAAAATATTGGTAGACGGAGTCACCTAGTGCAG,14400 fluorescence intensity (a.u.)
17,ATTATAATTAGCTTTCTTTTGTCATTTTGCAAGCAAACATCGGAGTCACCTAGTGCAG,14400 fluorescence intensity (a.u.)
18,ACAATAGATATGATGATGATCCAATCTTATCTTCTTGTGGCGGAGTCACCTAGTGCAG,6390 fluorescence intensity (a.u.)
19,ATACTAACCAAATTTCAGGTTGATTGTTTACTGCTTTCAACGGAGTCACCTAGTGCAG,18800 fluorescence intensity (a.u.)
20,CGTCTATAGCCAATCTAATAGCCAATTCATACAATAGATGCGGAGTCACCTAGTGCAG,4280 fluorescence intensity (a.u.)
21,GCAGATGTAATTACAGTACAATCATAGTGTAATTACACTGCGGAGTCACCTAGTGCAG,36000 fluorescence intensity (a.u.)

row,Sequence,binding signal
1,CTAGATGATATGCTAGATGAATTGAGTGGGTCTATGATATCGGAGTCACCTAGTGCAG,5540 fluorescence intensity (a.u.)
2,ACCTATTTTACTCTTAGCAATCAATTTAGCATATTTATCTCGGAGTCACCTAGTGCAG,3500 fluorescence intensity (a.u.)
3,GTCAACTGGAAATTGAAATTCAGCCAAAATTAGTGATCAGCGGAGTCACCTAGTGCAG,4850 fluorescence intensity (a.u.)
4,TTACGAGATGGTGATTGCTAATTGGTGGTACTAGCTAGTACGGAGTCACCTAGTGCAG,21800 fluorescence intensity (a.u.)
5,ACCAATTTTCGTTGTTAACTTTCTCAATGTTCATGCCGTGCGGAGTCACCTAGTGCAG,3300 fluorescence intensity (a.u.)
6,TAATCTAATTGAGACGCTTATGGGCTCGCTAACCGACCACCGGAGTCACCTAGTGCAG,27200 fluorescence intensity (a.u.)
7,ACTCACTGTAATTTTGGTATAATTTAATAACTAAATTTGGCGGAGTCACCTAGTGCAG,16700 fluorescence intensity (a.u.)
8,TCCATGATTAGCCTGTGTGATGTTACAGTAAACATTCTCTCGGAGTCACCTAGTGCAG,33300 fluorescence intensity (a.u.)
9,ATTGTTATTGATGACATATGGGATAAGAAATCATGGGAGTCGGAGTCACCTAGTGCAG,7300 fluorescence intensity (a.u.)
10,AATCTCTGAATAAATTGATTTGCACTAGTTCTAGAAGCTGCGGAGTCACCTAGTGCAG,36000 fluorescence intensity (a.u.)
11,GTAGGTGATTAGACCATTCTAACCCTCATCGACAACTCGGCGGAGTCACCTAGTGCAG,22200 fluorescence intensity (a.u.)
12,ACCTAATATTAGATTGGACACATCTTATTACTATGAATCTCGGAGTCACCTAGTGCAG,18200 fluorescence intensity (a.u.)
13,AAATGATTGAATCCTAGAAACTCTGACCTATACAAGTGGTCGGAGTCACCTAGTGCAG,60500 fluorescence intensity (a.u.)
14,GGCATGTTTGATTTGGCACAAATTTTGAGAACTTTTACGGCGGAGTCACCTAGTGCAG,6770 fluorescence intensity (a.u.)
15,GTTTAGATTGGTAGGTTTGACACTGTTTGATGCTAAAACACGGAGTCACCTAGTGCAG,15500 fluorescence intensity (a.u.)
16,TCATTAACGCATAATTAATTGAGTTTTGATTATTAAACTTCGGAGTCACCTAGTGCAG,20800 fluorescence intensity (a.u.)
17,CAATGGAATTAATCATGATAGCAGCCAGGTACGTAGCAGCCGGAGTCACCTAGTGCAG,7550 fluorescence intensity (a.u.)
18,CCGCCAATATTGATTGAGATATATTCAGAAATTCTATAAACGGAGTCACCTAGTGCAG,13900 fluorescence intensity (a.u.)
19,TCAAACCAACAAAATTATCAATTATCTGTGATTTGGGATTCGGAGTCACCTAGTGCAG,24900 fluorescence intensity (a.u.)
20,TTATCAGGAGACAATTGATTAAATTAATGGTAGGGGTACCCGGAGTCACCTAGTGCAG,17800 fluorescence intensity (a.u.)
21,ATTATAATCAATCTCCCGCGGTGTATGGGCTCGGCGCACGCGGAGTCACCTAGTGCAG,10000 fluorescence intensity (a.u.)
